Laboratory results reported in the supplement of paper PMC12355420.
Counter-ions that a name gives are not always drawn. The list shows a part of the results. Single values are uncertain, as repeats are few or missing.

test system: HeLa VPS33A KO + NLuc-VPS33A R498W; assay: relative mutant VPS33A R498W amount (NanoLuc luminescence) vs DMSO (fraction of DMSO); HeLa model of a glycosaminoglycan (GAG) storage disease; KI is knock-in and KO knock-out; SDC1 is syndecan 1; higher = higher mutant VPS33A level; details: 50 µM; 24 h
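Note: screen of an FDA-approved drug library, NanoLuc luminescence read after lysing the treated cells, taken as a measure of mutant VPS33A protein stability.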

SMILES	relative mutant VPS33A R498W amount
OC(c1ccccc1)(c1ccccc1)C1CCNCC1 [Azacyclonol]	0.861
CCC12C=CCN3CC[C@@]4(c5ccc(OC)cc5N(C)[C@H]4[C@@](O)(C(=O)OC)[C@@H]1OC(C)=O)[C@@H]32 (some centres not stated) [Vindoline]	0.892
CN(C)C(=O)Oc1cc(OC(=O)N(C)C)cc(C(O)CNC(C)(C)C)c1 (configuration not stated) [Bambuterol (hydrochloride)]	1.32
CN1C(=O)CCS(=O)(=O)C1c1ccc(Cl)cc1 (configuration not stated) [Chlormezanone]	1.13
CCN1CC2(OC(=O)c3ccccc3NC(C)=O)CCC(OC)C34C1C(CC23)C1(O)CC(OC)C2CC4C1(O)C2OC (configuration not stated) [Lannaconitine]	0.796
Cc1cc(C(C#N)c2ccc(Cl)cc2)c(Cl)cc1NC(=O)c1cc(I)cc(I)c1O (configuration not stated) [Closantel Sodium]	0.943
c1ccc2c(c1)sc1ccccc12 [Dibenzothiophene]	1.1
Cn1c(CCCC(=O)O)nc2cc(N(CCCl)CCCl)ccc21 [Bendamustine HCl]	0.808
NCC(O)c1ccc(O)cc1 (racemic) [(+,-)-Octopamine HCl]	1.33
CCN(C)C(=O)Oc1cccc([C@H](C)N(C)C)c1 [Rivastigmine]	0.667
CN[C@H]1[C@H](O)[C@H](O[C@@H]2[C@@H](O)[C@H](O[C@H]3O[C@H](C(C)O)[C@@H](O)[C@H](O)[C@H]3N)[C@@H](N)C[C@H]2N)OC[C@@]1(C)O (some centres not stated) [Geneticin, G-418 Sulfate]	0.9
CN1[C@@H]2C[C@@H](OC(=O)[C@H](CO)c3ccccc3)C[C@H]1[C@@H]1O[C@@H]12 [Scopolamine hydrobromide]	0.968
